Data from the supplement of paper PMC7826260.
The list shows a part of the results. Viral Rep nickase domains cut single-stranded DNA in vitro (1 h at 37 °C, 3 µM enzyme); the outer parts of the 90-letter strands are left off. A value is the log2 ratio of uncut reads to the pool without enzyme; more negative means more cut, near 0 not cut, and no call is made. Shares of all reads are compared; where an enzyme cuts many sequences, the uncut ones exceed 0.

The sequences below were run on T1, Rep nickase domain of tomato golden mosaic virus (assay: uncleaved DNA left, log2 of reads against the no-enzyme library (log2 ratio); higher = less cleavage (more negative = more Rep cleavage of the k-mer); sequences stand for … in CTCGTCCG…ACCGGAGA).
T1 sequence (Rep 1-124, printed without the tag): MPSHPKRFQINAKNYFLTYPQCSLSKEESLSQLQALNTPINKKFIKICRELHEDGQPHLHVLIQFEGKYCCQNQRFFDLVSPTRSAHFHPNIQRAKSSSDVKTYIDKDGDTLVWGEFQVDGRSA
Procedure: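 A pool of 90-nt single-stranded DNAs with seven random bases just before the constant AC of the nick site (name = the seven bases) was cut by 3 µM recombinant His6-SUMO-tagged Rep nickase domain (300 nM DNA, 50 mM HEPES pH 8.0, 50 mM NaCl, 1 mM MnCl2, 1 h, 37 °C, three replicates). Uncut DNA was amplified and sequenced.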
In the case of GCTGATC, the “uncleaved DNA left (log2)” value is reported as -0.00612.
For TCGCTTA, the “uncleaved DNA left (log2)” value was 0.00132.
CTGAGTC was tested, and the “uncleaved DNA left (log2)” value was -0.0319.
GTGCAAG was tested, and the “uncleaved DNA left (log2)” value was -0.00274.
In the case of AAGGCTA, the “uncleaved DNA left (log2)” value is reported as 0.102.
With ACTATGC the “uncleaved DNA left (log2)” value was -0.0593.
In the case of AAATGAC, the “uncleaved DNA left (log2)” value is reported as 0.0287.
In the case of CCTACAT, the “uncleaved DNA left (log2)” value is reported as -0.0463.
In the case of CCACCGC, the “uncleaved DNA left (log2)” value is reported as -0.144.
In the case of CACGCTA, the “uncleaved DNA left (log2)” value is reported as 0.065.
In the case of CTTTATG, the “uncleaved DNA left (log2)” value is reported as -0.187.
In the case of CGCCGTT, the “uncleaved DNA left (log2)” value is reported as -0.176.
GTATCCA was tested, and the “uncleaved DNA left (log2)” value was 0.0186.
For GACGCCA, the “uncleaved DNA left (log2)” value was 0.00222.
TTATCCG was tested, and the “uncleaved DNA left (log2)” value was -0.125.
For CCCTAGC, the “uncleaved DNA left (log2)” value was 0.0889.
For CCTTGAC, the “uncleaved DNA left (log2)” value was -0.101.
With CCCGTGC the “uncleaved DNA left (log2)” value was -0.107.
For GTACGGC, the “uncleaved DNA left (log2)” value was 0.12.
With ATTGGCT the “uncleaved DNA left (log2)” value was -0.0451.
AGCACAA was tested, and the “uncleaved DNA left (log2)” value was -0.000982.
With TCTGGCA the “uncleaved DNA left (log2)” value was -0.0978.
For AGGCGGA, the “uncleaved DNA left (log2)” value was 0.193.
With GGTTGAG the “uncleaved DNA left (log2)” value was 0.0395.
GTCCTGA was tested, and the “uncleaved DNA left (log2)” value was 0.116.
In the case of CATGTGC, the “uncleaved DNA left (log2)” value is reported as -0.112.
For CTTCAGT, the “uncleaved DNA left (log2)” value was 0.0238.
TAAGGGG was tested, and the “uncleaved DNA left (log2)” value was 0.061.
For CCTAAGG, the “uncleaved DNA left (log2)” value was 0.233.
TATTTCG was tested, and the “uncleaved DNA left (log2)” value was -0.0368.
With CTAGCTT the “uncleaved DNA left (log2)” value was -0.131.
CTGCCCT was tested, and the “uncleaved DNA left (log2)” value was -0.0133.
In the case of ACCGGCA, the “uncleaved DNA left (log2)” value is reported as -0.0742.
For ACCGATG, the “uncleaved DNA left (log2)” value was 0.173.
AATTCCT was tested, and the “uncleaved DNA left (log2)” value was -0.191.
AGTGTCA was tested, and the “uncleaved DNA left (log2)” value was 0.0751.
For GGATATT, the “uncleaved DNA left (log2)” value was 0.0267.
For CGCGACT, the “uncleaved DNA left (log2)” value was 0.0892.
In the case of AGTAACT, the “uncleaved DNA left (log2)” value is reported as 0.161.
With CAGGAGC the “uncleaved DNA left (log2)” value was -0.00746.
